# In the supplement of paper PMC10126150:
# Values marked as one replicate rest on one cluster of the flow cell; about a third of the high ones do not repeat.
# System: ATP
# Experiment: switch fluorescence ratio, 500 uM ATP over buffer (Cy3 cluster intensity, sum of 5 cycles each) (fold (ratio)); higher = stronger signal-on switching upon ATP binding; sequences stand for … in TCGTCGGCAGCGTCAGATGTGTATAAGAGACAGTTTTTTTTTTTTTTTTTTTTTTTTT…TC
# Details: aptamer strand: ATP DNA aptamer (quencher-CACCTGGGGGAGTATTGCGGAGGAAGG + anchor), 100 nM annealed; ATP concentration: 500 uM; one replicate
# Method in brief: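 Clusters with intensities outside 100-1000 RFU were excluded. The remaining Cy3-labelled switching-strand clusters on a modified Illumina MiSeq flow-cell had been annealed to 100 nM quencher-labelled ATP aptamer and imaged in selection buffer, then after 15 min with 500 uM ATP at 22 °C, for five cycles separated by NaOH stripping and re-annealing. The fluorescence ratio, averaged per switch-domain sequence, is each cluster's summed target-cycle Cy3 intensity over its summed buffer-cycle Cy3 intensity.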
# 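Also: ATP exposure 15 min at 22 °C before imaging.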
row,Sequence,switch fluorescence ratio
1,GTAAGGACAT,1.06
2,GTAAGGGTGT,1.02
3,GTAATAACGC,1
4,GTAATAAGTG,0.999
5,GTAATAGGTG,1.01
6,GTAATAGTCT,1.04
7,GTAATATGAT,0.987
8,GTAATCATGT,1.07
9,GTAATCGCCC,1.07
10,GTAATGCAGA,1.02
11,GTAATGCATT,0.977
12,GTAATGGGGC,0.985
13,GTAATGTG,1.05
14,GTAATTTCAC,1.01
15,GTACAGCTTG,0.95
16,GTACCATTAA,1.01
17,GTACCTTACC,1.8
18,GTACGCCAGG,1.32
19,GTACGGGATG,1.03
20,GTACTAAG,1.06
21,GTACTGGT,1.02
22,GTACTGTTTT,1.01
23,GTACTTCTAA,1.04
24,GTACTTGAAT,1.02
25,GTAGAAAAAT,1.07

row,Sequence,switch fluorescence ratio
1,GTAGAAGAGT,0.987
2,GTAGAGATTG,0.975
3,GTAGCACTGG,1.45
4,GTAGCGGGGG,1.01
5,GTAGGATACG,1.06
6,GTAGGCAATG,1.03
7,GTAGGCCAAC,1.02
8,GTAGGGCGTT,1.02
9,GTAGGTCCAG,0.992
10,GTAGGTCTCT,1.03
11,GTAGGTTTCC,0.981
12,GTAGTAGGCA,0.972
13,GTAGTCTACT,1.02
14,GTAGTCTGTT,0.977
15,GTAGTGGTAG,1.01
16,GTAGTTAAAT,0.98
17,GTAGTTCAGG,1.02
18,GTATAAGCGT,1.04
19,GTATACAAGA,1
20,GTATACAATC,1.03
21,GTATACACGG,1.03
22,GTATAGGAAG,0.966
23,GTATAGTACG,0.998
24,GTATCAATGC,2.03
25,GTATCGACTG,1.01

row,Sequence,switch fluorescence ratio
1,GTATCTGGGA,0.979
2,GTATCTTTGC,0.982
3,GTATGCGGCA,1.01
4,GTATGGAGGA,0.977
5,GTATGGGTGA,0.994
6,GTATGGTCAA,0.975
7,GTATGTAGTC,0.99
8,GTATGTCAGA,0.982
9,GTATGTCCTC,1.02
10,GTATGTGGTC,1
11,GTATGTTCTA,1.03
12,GTATGTTTGT,0.946
13,GTATTAGGTT,0.98
14,GTATTATTGT,1.05
15,GTATTTGCGG,0.98
16,GTATTTTTCT,1.04
17,GTATTTTTTA,1.04
18,GTCAAACCAG,1.06
19,GTCAAAGCGA,1.06
20,GTCAAAGTCT,1.02
21,GTCAAAGTTG,1.15
22,GTCAACGCAG,1.02
23,GTCAACGGAT,1.01
24,GTCAAGAAAT,1.03
25,GTCAATCACT,1.05

row,Sequence,switch fluorescence ratio
1,GTCAATGTAT,1.02
2,GTCAATTTAA,1
3,GTCAATTTGG,1.05
4,GTCACACGTC,0.999
5,GTCACTCTTT,1.03
6,GTCAGAGTCC,1.01
7,GTCAGGGAGC,1
8,GTCATAAATT,1.02
9,GTCATAGGAG,1.01
10,GTCATCCCAC,1.14
11,GTCATTACGG,0.997
12,GTCATTATTA,1.03
13,GTCATTCGGT,0.988
14,GTCATTCTGG,0.955
15,GTCCAAGATG,1.05
16,GTCCAGGGAA,1.1
17,GTCCATAGTC,1.02
18,GTCCATCGTT,0.997
19,GTCCCAAAAA,1.07
20,GTCCCAGGTT,2.44
21,GTCCCCAACG,1.05
22,GTCCCGTTTA,0.979
23,GTCCGAATTG,1.02
24,GTCCGCAGGA,1.06
25,GTCCGCTTAG,2.96
